# In PMC4336329 (PLoS ONE, 2015):
# Among all 310,000 compounds or so, about 2,200 (0.71%) showed an effect of 50% or more. Effects have a minus sign here. Some of the results follow.
# Biological target: human ether-à-go-go-related gene (hERG) potassium channel (human, UniProt Q12809)
# Assay: primary screen, population patch clamp on CHO cells stably expressing hERG
# Sequence of human ether-à-go-go-related gene (hERG) potassium channel (Q12809 whole entry, looked up): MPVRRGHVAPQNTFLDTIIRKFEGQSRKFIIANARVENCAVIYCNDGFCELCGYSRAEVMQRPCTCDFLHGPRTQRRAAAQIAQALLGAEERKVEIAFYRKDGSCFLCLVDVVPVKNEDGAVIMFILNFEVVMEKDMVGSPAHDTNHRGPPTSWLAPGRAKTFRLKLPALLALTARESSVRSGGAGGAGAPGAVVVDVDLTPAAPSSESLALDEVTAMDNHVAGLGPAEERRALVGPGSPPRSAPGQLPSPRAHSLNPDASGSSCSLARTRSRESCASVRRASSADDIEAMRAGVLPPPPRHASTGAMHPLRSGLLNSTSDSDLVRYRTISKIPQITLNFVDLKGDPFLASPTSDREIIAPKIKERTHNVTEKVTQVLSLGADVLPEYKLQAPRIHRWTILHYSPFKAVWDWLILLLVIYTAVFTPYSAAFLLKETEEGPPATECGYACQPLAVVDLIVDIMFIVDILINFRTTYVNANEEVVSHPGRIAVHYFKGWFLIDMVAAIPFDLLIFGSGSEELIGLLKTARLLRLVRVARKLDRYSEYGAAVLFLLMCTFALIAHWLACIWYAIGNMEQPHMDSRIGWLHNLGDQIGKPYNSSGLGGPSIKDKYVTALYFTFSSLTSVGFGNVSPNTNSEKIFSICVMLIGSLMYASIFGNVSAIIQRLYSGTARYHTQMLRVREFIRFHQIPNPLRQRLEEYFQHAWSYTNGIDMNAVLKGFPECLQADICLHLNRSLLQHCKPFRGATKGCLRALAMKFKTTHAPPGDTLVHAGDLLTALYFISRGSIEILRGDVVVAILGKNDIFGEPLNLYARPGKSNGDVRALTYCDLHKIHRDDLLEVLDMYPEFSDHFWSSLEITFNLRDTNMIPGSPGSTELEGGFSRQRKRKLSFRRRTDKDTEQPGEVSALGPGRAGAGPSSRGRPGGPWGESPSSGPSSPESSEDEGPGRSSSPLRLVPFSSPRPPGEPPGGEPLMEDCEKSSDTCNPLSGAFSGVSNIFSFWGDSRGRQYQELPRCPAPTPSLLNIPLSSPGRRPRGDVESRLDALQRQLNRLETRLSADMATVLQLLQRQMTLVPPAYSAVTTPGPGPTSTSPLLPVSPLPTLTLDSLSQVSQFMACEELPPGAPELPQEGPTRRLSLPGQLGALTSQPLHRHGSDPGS
row,Compound,"hERG current change (%, negative = inhibition) at 1uM"
1,Cc1cc(C)c(C)c(S(=O)(=O)N2CCN(Cc3nc4ccccc4[nH]3)CC2)c1C,0.587%
2,CN(C)CCN(Cc1cc2cc3c(cc2[nH]c1=O)OCO3)C(=S)NCc1ccco1,5.49%
3,Cl.O=C([C@H](Cc1ccc(O)cc1)n1cc(CCO)nn1)N1CCNCC1,18.7%
4,NC(=O)CSc1nnc(-c2ccncc2)n1-c1ccc(Cl)cc1,-3.17%
5,COCCN(C(=O)COC(=O)Cc1cccc(OC)c1)c1c(N)n(Cc2ccccc2)c(=O)[nH]c1=O,-2.76%
6,COc1cccc(OC)c1OCCNC(C)(C)C.O=C(O)C(=O)O,13.1%
7,Cn1[nH]c(=O)c(Cl)c(Cl)c1=O,11.8%
8,O=c1cc(CN2CCN(c3ccccn3)CC2)nc2sccn12,9.39%
9,Fc1ccc(Cc2nnc(-c3cccs3)o2)cc1,-2.04%
10,O=C(Nc1ccc(NC(=O)c2sc3ccccc3c2Cl)cc1)c1ccco1,19.1%
11,N#C/C(=C\c1ccc(-c2cccc([N+](=O)[O-])c2)o1)C(=O)NCCN1CCOCC1,-12.7%
12,COc1cccc(CN(C)C(=O)c2cc(-c3ccc(OC)c(OC)c3)nc3ccccc23)c1,7.34%
13,COc1ccc(NC(=S)N/C(=N/S(=O)(=O)c2ccc(C)cc2)c2ccccc2)cc1,14.1%
14,Cl.Nc1ccc(Br)c2cccnc12,23.4%
15,Cc1ccc(S(=O)(=O)CC2CSc3nnc(C)c(=O)n32)cc1 (stereo not drawn),21.1%
16,CC1(C)Cc2c(cnn2-c2cccc(F)c2)C(NC(=O)c2ccc(=O)[nH]n2)C1 (stereo not drawn),-61.7%
17,COc1ccc(N2CCN(CCCn3c(=S)[nH]c4ccccc4c3=O)CC2)cc1,-16.2%
18,c1ccc2c(c1)COC(CNC1CCCCC1)OC2,9.09%
19,CC(NC(=O)COC(=O)c1cc(Cl)ccc1O)C1CC2CCC1C2 (stereo not drawn),10.2%
20,CC(C)(C)C(=O)N1CCN(c2nc3ccccc3s2)CC1,0.817%
21,Cc1cc(C)c(S(=O)(=O)c2ccccc2C)c(SCC(C)C)n1,-1%
22,CCOc1ccc(OCC)c(NC(=O)CSc2nc3c(c(=O)n(C)c(=O)n3C)n2CC)c1,-4.59%

row,Compound,"hERG current change (%, negative = inhibition) at 1uM"
1,CN(C)CCNC(=O)CCn1nc(-c2ccc(Cl)cc2)ccc1=O,6.61%
2,CC(=O)Nc1ccc(S(=O)(=O)Nc2ccc(S(=O)(=O)Nc3nc(C)cc(C)n3)cc2)cc1,16.6%
3,O=C(O)CCCn1c(=S)[nH]c2c(sc3ccc([N+](=O)[O-])cc32)c1=O,16.9%
4,COc1ccc(/C=C(\NC(=O)c2ccccc2)C(=O)N2CCN(C)CC2)cc1,-75.2%
5,COc1ccc(NC(=O)CSc2nnnn2C2CCCCC2)cc1,12.3%
6,Cc1sc(N/N=C/c2cccs2)nc1-c1ccccc1,2.84%
7,Cc1cccc(-c2nnc(SCc3cc(=O)[nH]c4ccccc34)n2C)c1,-16.2%
8,CCOP(=O)(OCC)C(O)c1cccc([N+](=O)[O-])c1 (stereo not drawn),7.94%
9,O=C(NC1CCCC1)C1CCN(S(=O)(=O)N2CCCCC2)CC1,11.9%
10,O=C(COC(=O)CCC(=O)c1cccs1)Nc1ccccc1[N+](=O)[O-],10.3%
11,CN(Cc1ccco1)S(=O)(=O)c1nnc(NC(=O)c2ccc(F)cc2)s1,10.4%
12,CCCCNC(=O)CC1S/C(=N/N=C/c2ccc(OC)cc2)NC1=O (stereo not drawn),13.3%
13,COc1cc(C)c(Cl)cc1S(=O)(=O)N1CCCC1,16.6%
14,C#C[C@]1(O)CC[C@H]2[C@@H]3CCc4cc(OC5CCCC5)ccc4[C@H]3CC[C@@]21C,17.6%
15,CCCC(CCC)C(=O)Nc1ccc2c(c1)N(C(=O)CCN1CCN(C)CC1)c1ccccc1CC2.Cl,5.65%
16,CCOc1ccc(-c2cc(NC(=O)c3c(F)cccc3F)c(C(=O)O)s2)cc1,16.4%
17,CC(=O)OCC(=O)[C@@]1(OC(C)=O)[C@@H](C)C[C@H]2[C@@H]3C[C@H](F)C4=CC(=O)C=C[C@]4(C)[C@@]3(F)[C@@H](O)C[C@@]21C,-5.51%
18,CC(C)[C@H](NC(=O)C1CCN(S(=O)(=O)c2ccc(F)cc2)CC1)C(=O)N1CCCCCC1,25.7%
19,CNS(=O)(=O)c1cc(O)c2c(S(=O)(=O)NC)cccc2c1,13.7%
20,CC(=O)NC(C)(C)C1CC=C(C)/C(=N\O)C1 (stereo not drawn),-7.13%
21,CC(C)[C@H](NC(=O)NC1CCCC1)C(=O)O,11%
22,Cc1ccc(NC(=O)C2(N(CC(C)C)C(=O)Cn3nnnc3N)CCCCC2)cc1,-0.3%

row,Compound,"hERG current change (%, negative = inhibition) at 1uM"
1,CCCCS(=O)(=O)N1CCC(C(=O)Oc2ccc(Cl)cc2)CC1,17.9%
2,Cc1ccc(-c2noc(C3CCCN(C(=O)c4ccccc4Br)C3)n2)cc1 (stereo not drawn),12.4%
3,CC(=O)N1CCCc2cc(S(=O)(=O)Nc3ccc(C)cc3C)ccc21,-2.03%
4,CC(N)Cc1c[nH]c2c1ccc1ccccc12.Cl (stereo not drawn),12.7%
5,COc1ccc(N/N=C(\C#N)C(=O)NCCc2ccc(OC)c(OC)c2)cc1,10.9%
6,O=C(CNC(=O)c1ccco1)N/N=C/c1c[nH]c2ccccc12,6.71%
7,O=C(O)CC(Cc1ccc(Br)cc1)C(=O)O (stereo not drawn),9.97%
8,NC(=O)CC(NC(=O)c1ccccc1)c1ccc(NC2CCN(Cc3ccccc3)CC2)c([N+](=O)[O-])c1 (stereo not drawn),6.21%
9,CC(C)OCCCNc1ncnc2c1cnn2-c1ccccc1,2.86%
10,O=C(NCCCn1ccnc1)/C(=C/c1ccccc1)NC(=O)c1ccccc1,-47.6%
11,Br.CCOc1ccc(C2=Nn3c(CC)nnc3SC2)cc1,10.8%
12,COc1ccc(Nc2nc3ccc(OC)cc3s2)cc1,7.96%
13,O=C1NC(c2ccc(Cl)c([N+](=O)[O-])c2)Nc2ccccc21 (stereo not drawn),16.9%
14,Cc1nn(C)cc1CN(C)Cc1ccc(OCC(O)CN2CCCCC2)cc1 (stereo not drawn),0.849%
15,O=C(NCc1ccc(F)cc1)C(C(=O)NCc1ccc(F)cc1)c1ncc(C(F)(F)F)cc1Cl,6.17%
16,COc1cccc([C@@]2(O)CCCC[C@@H]2CN(C)C)c1.Cl,15.7%
17,Cc1ccc(N(CC(=O)NCCSc2ccccn2)S(C)(=O)=O)cc1,11.7%
18,COc1ccc2oc(=O)c(C(=O)OCc3ccccc3)cc2c1,13.9%
19,CS(=O)(=O)N(CC(=O)NCCSCc1cccc(Cl)c1)c1ccc2c(c1)OCO2,9.95%
20,O=C(CCc1n[nH]c(=O)[nH]c1=O)N1CCCCC1,10.1%
21,COc1ccc2c(C)cc(SCC(=O)Nc3ccc(Cl)cn3)nc2c1,8.18%
22,Cc1cc(OCC(=O)Nc2ncn[nH]2)ccc1Cl,11.2%

row,Compound,"hERG current change (%, negative = inhibition) at 1uM"
1,O=S(=O)(NCc1ccccc1)c1ccc(Br)c2nsnc12,10.5%
2,Brc1ccc(NCc2cccc3ccccc23)nc1,14.4%
3,CC1CC(Nc2ccccc2)c2ccccc2N1C(=O)c1ccccc1F (stereo not drawn),14.1%
4,CCc1ccc(C(c2c(C)nn(-c3ccccc3)c2N)c2c(C)nn(-c3ccccc3)c2N)cc1,0.152%
5,CNS(=O)(=O)c1cccc(C(=O)OCC(=O)NC2CCCC2)c1,12.1%
6,Cc1cc(C)n(S(=O)(=O)c2ccccc2)n1,3.01%
7,O=C(CNCc1ccc(F)cc1)Nc1ccc(S(=O)(=O)N2CCOCC2)cc1,5.06%
8,C/C(=C\COc1ccc2ccc(=O)oc2c1)CC[C@@H](O)C(C)(C)O,14.5%
9,O=C(O)c1ccccc1C(=O)Nc1ccc(-n2nc(C(F)(F)F)cc2C(F)(F)F)cc1,8.59%
10,C=CCn1c(=O)c2ccccc2n2c(SCc3cc(=O)n4ccsc4n3)nnc12,4.25%
11,CCOc1ccc(C2Oc3nc(SC)nnc3-c3ccccc3N2C(C)=O)cc1OC (stereo not drawn),11.4%
12,O=C(Nc1ccccc1)N(Cc1ccc2c(c1)OCO2)Cc1nc2ccccc2c(=O)[nH]1,3.08%
13,CCOC(=O)c1c(C)[nH]c(C)c1C(=O)CSc1nc2ccccc2c(=O)n1-c1ccc(Cl)cc1,9.38%
14,COc1cc(NC(=O)Cn2cnc(S(=O)(=O)N3CCOCC3)c2)cc(OC)c1OC,11.1%
15,CSCCC(NS(=O)(=O)c1ccccc1)C(=O)OCc1nc2ccsc2c(=O)[nH]1 (stereo not drawn),1.15%
16,OC(COc1ccc(OCc2ccccc2)cc1)CN1CCOCC1 (stereo not drawn),-12.3%
17,CCc1ccc(NC(=O)C2CCN(S(=O)(=O)c3cnc[nH]3)CC2)cc1,18.5%
18,Cc1noc(NS(=O)(=O)c2ccc(NC(=O)CCC3CCCCC3)cc2)c1C,10.1%
19,O=[N+]([O-])c1cc(Cl)ccc1N1CCN(c2ccccc2O)CC1,12.2%
20,Cc1ccc(SC(=O)c2c(C)noc2-c2cc(C)on2)cc1,10.7%
21,Cc1ccc2oc(-c3ccc(C)c(NC(=O)Cc4cccs4)c3)nc2c1,0.0124%
